# According to the supplement of paper PMC8728848:
# The other results are listed elsewhere or left out.
# B1: HHA (Hippeastrum hybrid) (protein)
# chain: MQQDCNLVLYDVDKPIWASNTGGLARDCHLNMQSDGNLVVYAPRNQVIWASNTQGENGNYVCILQKDRNVVIYGTARWATGTNIHGAGIVGVPGSAPQNTTAEMIKLVRKYLITK
# Experiments:
# Test in all cases: glycan array binding signal (z-score within array); higher = stronger binding
# Details in all cases: glycan notation: IUPAC condensed, linker removed
# [1] = target: Man(a1-3)[Man(a1-6)]Man(a1-6)[Man(a1-2)Man(a1-3)]Man(b1-4)GlcNAc(b1-4)GlcNAc
# How it was run: (§1)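 The binding signal is a Z-score computed within each array and averaged over linkers. Arrays of the same protein sequence at different concentrations or buffers were also averaged together. Data originate from 3228 arrays in the Consortium for Functional Glycomics database, kept only where the protein sequence was available.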
# [2] = target: Man(a1-3)[Man(a1-6)]Man(a1-6)[Man(a1-3)]Man
# How it was run: as §1
# [3] = target: Man(a1-3)[Man(a1-6)]Man(a1-6)[Man(a1-3)]Man(b1-4)GlcNAc(b1-4)GlcNAc
# How it was run: as §1
# [4] = target: Man(a1-3)[Man(a1-6)]Man(b1-4)GlcNAc(b1-4)GlcNAc
# How it was run: as §1
# [5] = target: Man(a1-3)[Man(a1-6)]Man(b1-4)GlcNAc(b1-4)[Fuc(a1-6)]GlcNAc
# How it was run: as §1
# Man(a1-6)Man = target: Man(a1-6)Man
# How it was run: as §1
# Man(b1-4)GlcNAc = target: Man(b1-4)GlcNAc
# How it was run: as §1
# MurNAc(b1-4)GlcNAc = target: MurNAc(b1-4)GlcNAc
# How it was run: as §1
# Neu5Ac(a2-3)Gal = target: Neu5Ac(a2-3)Gal
# How it was run: as §1
# [6] = target: Neu5Ac(a2-3)Gal(b1-3)GalNAc
# How it was run: as §1
# [7] = target: Neu5Ac(a2-3)Gal(b1-3)GalNAc(b1-3)Gal(a1-4)Gal(b1-4)Glc
# How it was run: as §1
# [8] = target: Neu5Ac(a2-3)Gal(b1-3)GalNAc(b1-3)Gal(b1-4)GlcNAc
# How it was run: as §1
# [9] = target: Neu5Ac(a2-3)Gal(b1-3)GalNAc(b1-4)[Neu5Ac(a2-3)]Gal(b1-4)Glc
# How it was run: as §1
# [10] = target: Neu5Ac(a2-3)Gal(b1-3)GalNAc(b1-4)[Neu5Ac(a2-8)Neu5Ac(a2-3)]Gal(b1-4)Glc
# How it was run: as §1
# [11] = target: Neu5Ac(a2-3)Gal(b1-3)GalNAc6S
# How it was run: as §1
# [12] = target: Neu5Ac(a2-3)Gal(b1-3)GlcNAc
# How it was run: as §1
# [13] = target: Neu5Ac(a2-3)Gal(b1-3)GlcNAc(b1-2)Man
# How it was run: as §1
# [14] = target: Neu5Ac(a2-3)Gal(b1-3)GlcNAc(b1-2)Man(a1-3)[GlcNAc(b1-4)][Neu5Ac(a2-3)Gal(b1-3)GlcNAc(b1-2)Man(a1-6)]Man(b1-4)GlcNAc(b1-4)GlcNAc
# How it was run: as §1
# [15] = target: Neu5Ac(a2-3)Gal(b1-3)GlcNAc(b1-2)Man(a1-3)[Neu5Ac(a2-3)Gal(b1-3)GlcNAc(b1-2)Man(a1-6)]Man(b1-4)GlcNAc(b1-4)GlcNAc
# How it was run: as §1
# [16] = target: Neu5Ac(a2-3)Gal(b1-3)GlcNAc(b1-3)Gal(b1-3)GlcNAc
# How it was run: as §1
# [17] = target: Neu5Ac(a2-3)Gal(b1-3)GlcNAc(b1-3)Gal(b1-4)GlcNAc
# How it was run: as §1
# [18] = target: Neu5Ac(a2-3)Gal(b1-3)GlcNAc(b1-3)GalNAc
# How it was run: as §1
# [19] = target: Neu5Ac(a2-3)Gal(b1-3)GlcNAc(b1-4)Gal(b1-4)Glc
# How it was run: as §1
# [20] = target: Neu5Ac(a2-3)Gal(b1-3)GlcNAc(b1-6)GalNAc
# How it was run: as §1
# [21] = target: Neu5Ac(a2-3)Gal(b1-3)GlcNAc6S
# How it was run: as §1
# [22] = target: Neu5Ac(a2-3)Gal(b1-3)[Fuc(a1-4)]GlcNAc
# How it was run: as §1
# [23] = target: Neu5Ac(a2-3)Gal(b1-3)[Fuc(a1-4)]GlcNAc(b1-3)Gal(b1-3)[Fuc(a1-4)]GlcNAc
# How it was run: as §1
# [24] = target: Neu5Ac(a2-3)Gal(b1-3)[Fuc(a1-4)]GlcNAc(b1-3)Gal(b1-4)[Fuc(a1-3)]GlcNAc
# How it was run: as §1
# [25] = target: Neu5Ac(a2-3)Gal(b1-3)[GlcNAc(b1-6)]GalNAc
# How it was run: as §1
# [26] = target: Neu5Ac(a2-3)Gal(b1-3)[Neu5Ac(a2-3)Gal(b1-4)]GlcNAc
# How it was run: as §1
# [27] = target: Neu5Ac(a2-3)Gal(b1-3)[Neu5Ac(a2-6)]GalNAc
# How it was run: as §1
# [28] = target: Neu5Ac(a2-3)Gal(b1-3)[Neu5Ac(a2-6)]GlcNAc(b1-3)[Fuc(a1-3)[Gal(b1-4)]GlcNAc(b1-6)]Gal(b1-4)Glc
# How it was run: as §1
# [29] = target: Neu5Ac(a2-3)Gal(b1-3)]Neu5Ac(a2-3)Gal(b1-4)]GlcNAc
# How it was run: as §1
# Neu5Ac(a2-3)Gal(b1-4)Glc = target: Neu5Ac(a2-3)Gal(b1-4)Glc
# How it was run: as §1
# [30] = target: Neu5Ac(a2-3)Gal(b1-4)GlcNAc
# How it was run: as §1
# [31] = target: Neu5Ac(a2-3)Gal(b1-4)GlcNAc(b1-2)Man
# How it was run: as §1
# [32] = target: Neu5Ac(a2-3)Gal(b1-4)GlcNAc(b1-2)Man(a1-3)[GlcNAc(b1-4)][Neu5Ac(a2-3)Gal(b1-4)GlcNAc(b1-2)Man(a1-6)]Man(b1-4)GlcNAc(b1-4)GlcNAc
# How it was run: as §1
# [33] = target: Neu5Ac(a2-3)Gal(b1-4)GlcNAc(b1-2)Man(a1-3)[Neu5Ac(a2-3)Gal(b1-4)GlcNAc(b1-2)Man(a1-6)]Man(b1-4)GlcNAc(b1-4)GlcNAc
# How it was run: as §1
# [34] = target: Neu5Ac(a2-3)Gal(b1-4)GlcNAc(b1-2)Man(a1-3)[Neu5Ac(a2-3)Gal(b1-4)GlcNAc(b1-2)Man(a1-6)]Man(b1-4)GlcNAc(b1-4)[Fuc(a1-6)]GlcNAc
# How it was run: as §1
# [35] = target: Neu5Ac(a2-3)Gal(b1-4)GlcNAc(b1-2)Man(a1-3)[Neu5Ac(a2-6)Gal(b1-4)GlcNAc(b1-2)Man(a1-6)]Man(b1-4)GlcNAc(b1-4)GlcNAc
# How it was run: as §1
# [36] = target: Neu5Ac(a2-3)Gal(b1-4)GlcNAc(b1-2)[Neu5Ac(a2-3)Gal(b1-4)GlcNAc(b1-4)]Man(a1-3)[GlcNAc(b1-4)][Neu5Ac(a2-3)Gal(b1-4)GlcNAc(b1-2)[Neu5Ac(a2-3)Gal(b1-4)GlcNAc(b1-6)]Man(a1-6)]Man(b1-4)GlcNAc(b1-4)GlcNAc
# How it was run: as §1
# [37] = target: Neu5Ac(a2-3)Gal(b1-4)GlcNAc(b1-2)[Neu5Ac(a2-3)Gal(b1-4)GlcNAc(b1-4)]Man(a1-3)[GlcNAc(b1-4)][Neu5Ac(a2-3)Gal(b1-4)GlcNAc(b1-4)Man(a1-6)]Man(b1-4)GlcNAc(b1-4)GlcNAc
# How it was run: as §1
# [38] = target: Neu5Ac(a2-3)Gal(b1-4)GlcNAc(b1-2)[Neu5Ac(a2-3)Gal(b1-4)GlcNAc(b1-6)]Man(a1-6)[Neu5Ac(a2-3)Gal(b1-4)GlcNAc(b1-2)Man(a1-3)]Man(b1-4)GlcNAc(b1-4)GlcNAc
# How it was run: as §1
# [39] = target: Neu5Ac(a2-3)Gal(b1-4)GlcNAc(b1-2)[Neu5Ac(a2-3)Gal(b1-4)GlcNAc(b1-6)]Man(a1-6)[Neu5Ac(a2-3)Gal(b1-4)GlcNAc(b1-2)Man(a1-3)][GlcNAc(b1-4)]Man(b1-4)GlcNAc(b1-4)GlcNAc
# How it was run: as §1
# [40] = target: Neu5Ac(a2-3)Gal(b1-4)GlcNAc(b1-3)Gal
# How it was run: as §1
binder,measurement,setting,value
B1,glycan array binding signal (z-score),[1],5.57
same,glycan array binding signal (z-score),[2],5.35
same,glycan array binding signal (z-score),[3],5.15
same,glycan array binding signal (z-score),[4],8.3
same,glycan array binding signal (z-score),[5],6.07
same,glycan array binding signal (z-score),Man(a1-6)Man,-0.189
same,glycan array binding signal (z-score),Man(b1-4)GlcNAc,-0.208
same,glycan array binding signal (z-score),MurNAc(b1-4)GlcNAc,-0.213
same,glycan array binding signal (z-score),Neu5Ac(a2-3)Gal,-0.214
same,glycan array binding signal (z-score),[6],0.803
same,glycan array binding signal (z-score),[7],-0.2
same,glycan array binding signal (z-score),[8],-0.207
same,glycan array binding signal (z-score),[9],-0.218
same,glycan array binding signal (z-score),[10],-0.192
same,glycan array binding signal (z-score),[11],-0.218
same,glycan array binding signal (z-score),[12],-0.217
same,glycan array binding signal (z-score),[13],-0.196
same,glycan array binding signal (z-score),[14],-0.096
same,glycan array binding signal (z-score),[15],-0.202
same,glycan array binding signal (z-score),[16],-0.196
same,glycan array binding signal (z-score),[17],-0.208
same,glycan array binding signal (z-score),[18],-0.092
same,glycan array binding signal (z-score),[19],-0.158
same,glycan array binding signal (z-score),[20],-0.216
same,glycan array binding signal (z-score),[21],-0.188
same,glycan array binding signal (z-score),[22],-0.214
same,glycan array binding signal (z-score),[23],-0.132
same,glycan array binding signal (z-score),[24],-0.14
same,glycan array binding signal (z-score),[25],-0.214
same,glycan array binding signal (z-score),[26],-0.269
same,glycan array binding signal (z-score),[27],-0.203
same,glycan array binding signal (z-score),[28],-0.213
same,glycan array binding signal (z-score),[29],-0.196
same,glycan array binding signal (z-score),Neu5Ac(a2-3)Gal(b1-4)Glc,-0.2
same,glycan array binding signal (z-score),[30],-0.177
same,glycan array binding signal (z-score),[31],-0.185
same,glycan array binding signal (z-score),[32],-0.22
same,glycan array binding signal (z-score),[33],-0.215
same,glycan array binding signal (z-score),[34],-0.214
same,glycan array binding signal (z-score),[35],-0.22
same,glycan array binding signal (z-score),[36],-0.213
same,glycan array binding signal (z-score),[37],-0.218
same,glycan array binding signal (z-score),[38],-0.086
same,glycan array binding signal (z-score),[39],-0.221
same,glycan array binding signal (z-score),[40],-0.221
